Laboratory results: PubChem BioAssay AID488969 (Vanderbilt High Throughput Screening Facility, 2010)
The full ranking holds about 110,000 compounds; the median of “z-score” is about -0.1, and the highest 2% start at about 2. The list shows a part of the results.

Each compound was assayed against Metabotropic glutamate receptor 8 (Rattus norvegicus) (UniProt P70579) (assay: mGluR8 Gi/Go-coupled signaling modulation – cell-based, rat, thallium flux, HTS, primary screen (AID 488969)). Details: HEK293 rat mGluR8, GIRK (G protein-gated inwardly rectifying potassium channel) thallium flux, FluoZin2; at 10 µM; stronger effect = higher value; submaximal glutamate (EC20) added with thallium.
Chain of UniProt P70579 (P70579 whole entry, looked up): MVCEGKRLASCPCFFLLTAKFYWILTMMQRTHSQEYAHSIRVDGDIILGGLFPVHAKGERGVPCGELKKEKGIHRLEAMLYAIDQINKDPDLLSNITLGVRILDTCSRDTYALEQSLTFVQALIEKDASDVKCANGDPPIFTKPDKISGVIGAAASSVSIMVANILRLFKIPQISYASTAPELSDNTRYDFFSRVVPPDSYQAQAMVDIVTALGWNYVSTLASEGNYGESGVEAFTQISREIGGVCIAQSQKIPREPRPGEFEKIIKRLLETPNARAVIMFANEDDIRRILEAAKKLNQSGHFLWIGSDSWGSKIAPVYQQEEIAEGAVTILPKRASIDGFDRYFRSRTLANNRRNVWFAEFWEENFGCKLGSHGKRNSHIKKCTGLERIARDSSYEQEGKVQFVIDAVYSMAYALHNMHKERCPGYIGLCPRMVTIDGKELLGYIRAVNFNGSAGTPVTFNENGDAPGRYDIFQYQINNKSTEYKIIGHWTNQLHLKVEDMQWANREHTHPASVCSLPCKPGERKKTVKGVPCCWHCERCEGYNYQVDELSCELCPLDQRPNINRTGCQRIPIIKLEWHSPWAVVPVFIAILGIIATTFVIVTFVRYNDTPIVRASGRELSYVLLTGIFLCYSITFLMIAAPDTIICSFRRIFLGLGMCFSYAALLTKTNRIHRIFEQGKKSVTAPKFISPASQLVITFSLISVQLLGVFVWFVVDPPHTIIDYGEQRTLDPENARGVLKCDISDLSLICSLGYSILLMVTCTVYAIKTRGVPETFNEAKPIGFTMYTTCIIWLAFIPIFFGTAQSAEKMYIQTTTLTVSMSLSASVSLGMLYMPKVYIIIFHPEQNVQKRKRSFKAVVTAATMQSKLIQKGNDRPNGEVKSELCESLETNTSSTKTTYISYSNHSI

Row | SMILES | z-score
1 | COc1ccc(C(=O)NC(=S)Nc2ccccc2N2CCN(S(C)(=O)=O)CC2)cc1OC | 0.464
2 | Cc1cc(C)nc(N2CCC(C(=O)Nc3ccc4c(c3)CCC4)CC2)n1 | -0.308
3 | COc1cccc(CN2C(=O)CCC2(C)C(=O)NC2CCCC2)c1 (centres undefined) | -0.0357
4 | O=C(COc1ccccc1)NCC1CCCO1 (centres undefined) | 0.0828
5 | C=CCNC(=O)/C(C#N)=C/c1c(N(Cc2ccccc2)Cc2ccccc2)nc2ccccn2c1=O | -0.014
6 | C=CCn1c(Sc2nncn2C)nc2c1c(=O)[nH]c(=O)n2C | 0.436
7 | O=C(COC(=O)c1ccccc1NS(=O)(=O)c1cccs1)NCC12CC3CC(CC(C3)C1)C2 | -0.35
8 | O=C(O)CSc1nnnn1-c1ccccc1 | -0.0304
9 | CCOC(=O)N/N=C(C)/C=C/c1ccco1 | 0.31
10 | CCNc1cc(Cl)nc(SC)n1 | -0.339
11 | O=C(Nc1ccccc1N1CCCC1)c1cccnc1Cl | 0.34
12 | O=C(NN1CCOCC1)C12CC3CC(CC(C3)C1)C2 | -0.0267
13 | C=CCn1c(COc2cccc3cccnc23)nnc1SCC(=O)O | 0.239
14 | C=CCNC(=O)/C(C#N)=C/c1ccccc1[N+](=O)[O-] | -0.384
15 | Cc1nc(/N=C\N(C)C)sc1C(=O)Nc1ccccc1 | -0.0131
16 | CN(C)S(=O)(=O)c1cccc(N=C2NN=C(c3ccccc3)CS2)c1 | -0.38
17 | COc1ccc(N(C)C(=S)Oc2ccc(C(=O)Nc3ccccc3)cc2)cc1 | -0.0142
18 | CCC(=O)Nc1ccccc1C(=O)OCC(=O)c1ccc2ccccc2c1 | -0.32
19 | O=C(CN1CCN(c2ccc(F)cc2)CC1)Nc1cccc(C(F)(F)F)c1 | -0.781
20 | CN1CCN(/N=C/c2nc(-c3cccc([N+](=O)[O-])c3)n3ccccc23)CC1 | -0.16
21 | O=C(C1CCN(S(=O)(=O)N2CCOCC2)CC1)N1CCc2ccccc21 | -1.37
22 | Cc1cc(C)n(CC(O)COc2ccccc2[N+](=O)[O-])n1 (centres undefined) | 0.324

Row | SMILES | z-score
23 | COc1ccc(C2CC3(CC(C)(C)NC(=S)N3)Oc3cc(O)cc(C)c32)cc1 (centres undefined) | 0.628
24 | CCOc1cc(C(=O)NCC2CCCO2)cc(OCC)c1OCC (centres undefined) | 0.378
25 | CC(C)Nc1nc(NC(C)C)nc(Oc2ccc(OCc3ccccc3)nn2)n1 | -0.799
26 | N#Cc1ccc2ccn(CC(=O)NCc3ccco3)c2c1 | 0.27
27 | COc1ccc(-c2nn(-c3ccccc3)cc2/C=C/C(=O)OCC(=O)Nc2ccc(C#N)cc2)cc1 | -0.478
28 | CCCC1S/C(=N/N=C/c2ccc(OC)cc2)N(Cc2ccc(OC)cc2)C1=O (centres undefined) | -0.125
29 | COc1ccccc1NC(=O)CSc1nnc(Cc2cccn2C)n1CCc1ccccc1 | -0.327
30 | COc1cc(C(=O)N2c3ccccc3CC2C)cc(OC)c1OC (centres undefined) | 0.256
31 | CCN1C(=O)/C(=C\c2ccc3c(c2)OCO3)C(C(=O)OC)=C1C | -0.35
32 | Cc1nc(CS(=O)(=O)c2ccc(Cl)cc2)cc(Sc2ccc(Cl)cc2)n1 | -1.64
33 | Cc1ccc(NC(=O)CN2CCCN(S(=O)(=O)c3ccc(Br)s3)CC2)cc1 | -0.0863
34 | Cc1cc(C)nc(SCCC(=O)Nc2ccccc2)n1 | -0.0703
35 | COc1ccc(NC2c3ncccc3C(=O)N2Cc2ccccc2)c(OC)c1 (centres undefined) | -0.269
36 | OCCN(CCO)c1ncnc2c1oc1ccc(Br)cc12 | 0.0286
37 | CCc1nn(-c2cc(Oc3ccccc3)nc(-c3ccccc3)n2)c(N)c1C#N | -0.209
38 | O=C(N1CCOCC1)N1CCN(CC(O)COc2ccc3ccccc3c2)CC1 (centres undefined) | 0.248
39 | Cc1nc2ccccc2n1CCC(=O)Nc1cccc(F)c1 | 0.464
40 | CCOC(=O)N1CCN(c2c(NCCOC)c(=O)c2=O)CC1 | 0.313
41 | CS(=O)(=O)N1CCC(C(=O)NCCc2ccccc2)CC1 | -0.116
42 | CCOc1ccc2nc(SCC(=O)N3CCN(C(=O)c4ccco4)CC3)sc2c1 | -0.363
43 | O=C(Cn1cc(C(F)(F)F)cc(Cl)c1=O)Nc1cc(S(=O)(=O)N2CCOCC2)ccc1Cl | 0.197
44 | Cc1ccccc1NS(=O)(=O)c1cc(C(=O)Nc2ccccc2-c2ccccc2)ccc1Cl | -0.372

Row | SMILES | z-score
45 | O=C(CCSc1nc(-c2ccco2)cc(C(F)(F)F)n1)N1CCCc2ccccc21 | -0.374
46 | O=C(/C=C\c1ccc(-c2ccccc2)o1)c1ccccc1 | -0.00488
47 | COc1cc(C(=O)ON=C2C(C)=CC(=O)C=C2C)cc(OC)c1OC | -0.875
48 | O=C(c1ccccc1-c1ccccc1)N1CCN(c2ccccn2)CC1 | -0.0481
49 | c1ccc(COc2ccc(OCCCN3CCCC3)cc2)cc1 | 0.306
50 | CCN1C(=O)CSc2ccc(C(=O)NCCCN3CCOCC3)cc21 | -0.281
51 | COc1ccc(C(=O)O/N=C(\C)c2ccccc2)cc1 | -0.379
52 | O=C(CSc1nc2ccccc2o1)Nc1nc(-c2ccccc2)c(-c2ccccc2)s1 | 0.488
53 | O=C(Cc1cccs1)NCc1cccnc1 | 0.742
54 | COc1ccc(CC(=O)Nc2ccc3c(C)cc(=O)oc3c2)cc1OC | -0.246
55 | CCS(=O)(=O)NCC(c1ccco1)N1CCN(c2ccccc2)CC1 (centres undefined) | 0.126
56 | Cc1nnc(SCC(=O)N2c3ccccc3Sc3ccccc32)n1N | -0.267
57 | Cc1nc(NCCCN2CCOCC2)c2oc3ccccc3c2n1 | 0.46
58 | Cc1ccc(-c2nnc(Nc3ccc4c(c3)OCO4)c3ccccc23)cc1S(=O)(=O)NC(C)C | -0.422
59 | CC(C)(C)NC(=O)c1ccc(COc2ccccc2Br)o1 | -0.0751
60 | CS(=O)(=O)N1CCC(C(=O)N2CCc3ccccc3C2)CC1 | 0.171
61 | COc1ccc(CCNC(=O)COC(=O)C23CC4CC(CC(C4)C2)C3)cc1 | -0.22
62 | O=C1CC(c2ccccc2)Cc2nc3nc(C(F)(F)F)nn3cc21 (centres undefined) | -0.168
63 | C=C(C)CSC1=C(C#N)C(c2ccsc2)CC(=O)N1 (centres undefined) | -0.0994
64 | Cn1cnnc1-c1cccc(NS(=O)(=O)c2ccc(N3CCCC3=O)cc2)c1 | 0.152
65 | O=C(COC(=O)c1ccc(-c2ccc([N+](=O)[O-])cc2)o1)NC(=O)NC12CC3CC(CC(C3)C1)C2 | -0.435
66 | Cc1nnc(SCCn2c(N3CCC(C)CC3)nc3c2c(=O)n(C)c(=O)n3C)s1 | 0.292

Row | SMILES | z-score
67 | Cc1ccc(NC(=O)Nc2ccc3c(c2)N(C)C(=O)CS3)nc1 | -0.0618
68 | Cc1ccccc1NC(=O)NCCCN1CCCC1 | -0.529
69 | Cn1c(OCc2cccnc2)nc2c1c(=O)n(Cc1ccccc1)c(=O)n2C | 0.166
70 | CCOC(=O)c1ccc(N(CC(=O)NC2CCCC2)C(=O)CNC(=O)c2ccco2)cc1 | -0.0776
71 | O=C(N=C1c2ccccc2CN1c1cccc(Cl)c1)c1cccnc1 | -0.697
72 | Cc1ccc(/C=C2/SC(=O)N(CC(=O)N3CCOCC3)C2=O)s1 | 0.0203
73 | CC(C)n1c(SCC(=O)Nc2ccccc2N2CCOCC2)nc2c1c(=O)n(C)c(=O)n2C | 0.538
74 | CCOc1ccc(C(=O)N2CCC(C(=O)c3ccc4c(c3)OCCO4)CC2)cc1 | -1.29
75 | COc1ccc(-c2csc(N3CCN(Cc4ccc5c(c4)OCO5)CC3)n2)cc1 | 0.743
76 | CC1=NN(c2ccccc2)C(=O)/C1=C/c1c(O)n(-c2ccc(F)cc2)[nH]c1=O | -0.636
77 | O=[N+]([O-])c1cc2oc3c(c2c(C=NCc2ccncc2)c1O)CCCC3 | -0.349
78 | Cc1ccc(/C=N\Nc2cn[nH]c(=O)c2Cl)cc1 | -0.0559
79 | O=C(Nc1ccc(Br)cc1)C1CCCN1S(=O)(=O)c1cccs1 (centres undefined) | -0.34
80 | CCOC(=O)C1=C(O)/C(=C/c2ccc(-c3ccccc3C(=O)O)o2)SC1=Nc1ccc(OC)cc1 | -0.502
81 | Cc1ccc(-c2nc3cc(NS(=O)(=O)c4ccc(C)cc4)ccc3o2)cc1 | 0.00214
82 | CC1CCN(c2ccc(C(=O)Nc3ccc4c(c3)OCO4)cc2[N+](=O)[O-])CC1 | -0.237
83 | CN1CCc2c(sc3c2C(=O)NC(/C=C/c2ccco2)N3)C1 (centres undefined) | 0.79
84 | CCOc1cc(NC(=S)NCc2ccco2)c(OCC)cc1NC(=O)CC(C)C | -0.375
85 | CCOc1cc(N2CCOCC2)c(OCC)cc1NC1=NCCCCC1 | 0.251
86 | Cc1cc(C)c(C)c(S(=O)(=O)N2CCN(CC(=O)Nc3ccc([N+](=O)[O-])cc3)CC2)c1C | -0.125
87 | COc1cc(/C=C(\C#N)c2nc(-c3cc4ccccc4oc3=O)cs2)ccc1O | -2.33
88 | NC(=O)c1ccc(N2CCCCC2)c(N2C(=O)C3C4C=CC(C4)C3C2=O)c1 (centres undefined) | -0.9

Row | SMILES | z-score
89 | CC(C)Cn1c(CN2CCN(c3ccccc3F)CC2)nc2c1c(=O)[nH]c(=O)n2C | -0.316
90 | O=C(NCc1ccc2c(c1)OCO2)C1COc2ccccc2O1 (centres undefined) | 0.0341
91 | CON1C(=O)CN(C(C)=O)C1c1ccc(Cl)cc1Cl (centres undefined) | -0.162
92 | Cc1noc(C)c1CSc1ncnc2ccccc12 | -0.0473
93 | Brc1ccc(/C=N/Nc2ncnc3c2cnn3Cc2ccccc2)cc1 | -0.22
94 | CCCc1nc2scc(-c3ccc(C)cc3)c2c(=O)n1N | 0.144
95 | Cc1oc2cc3oc(=O)c4c(c3cc2c1C)CCC4 | -0.0605
96 | COC(=O)c1cc(NS(=O)(=O)c2ccc(N3CCOCC3)c(N)c2)cc(C(=O)OC)c1 | -0.407
97 | CCN(CC)CCCN1C(=O)C(O)=C(C(=O)c2cccs2)C1c1ccccn1 (centres undefined) | -0.273
98 | Cn1c(=O)c2c(nc(-c3ccccc3)n2C)n(Cc2ccccc2)c1=O | -0.372
99 | Cc1ccc(C(=O)NNC2=NCCC2)cc1 | -0.0578
100 | Cc1ccc(C2Oc3ccccc3C3=C2C(c2cccs2)n2ncnc2N3)cc1 (centres undefined) | 0.24
101 | CCC(C)(C(=O)NC1CCCC1)N(Cc1ccco1)C(=O)c1ccc2c(c1)OCO2 (centres undefined) | -0.0787
102 | CCOC(=O)N1CCN(C(=O)/C(=C/c2cccc3ccccc23)NC(=O)c2ccc(OC)cc2)CC1 | -0.241
103 | Cc1ccccc1N1C(=O)c2ccccc2N2C(=O)c3ccccc3C12 (centres undefined) | -0.175
104 | CN1c2ccccc2-c2nc3ccccc3n2C1c1cccs1 (centres undefined) | -0.32
105 | CC(=O)Nc1nc2ccccc2n1CCN1CCOCC1 | 0.363
106 | O=c1cc(-c2ccccc2)nc2n1Cc1ccccc1-2 | -0.59
107 | O=C(COc1ccc(F)cc1)N1CCC(c2ccccc2)C1 (centres undefined) | -0.364
108 | O=C(CN(Cc1ccccc1Cl)C(=O)c1ccc(CN2CCOCC2)o1)NCC1CCCO1 (centres undefined) | -0.0707
109 | Cc1ccc(C)c(N(CC(=O)N/N=C/c2ccc(-c3ccc([N+](=O)[O-])cc3)o2)S(=O)(=O)c2ccccc2)c1 | 1.49
